Measured values as given in US20220267410A1 (UNIVERSITAT STUTTGART, published 2022).

T1: TNFR2 on Kym-1 cells (UniProt P20333 23-461, limits assumed)
T1 sequence (looked up): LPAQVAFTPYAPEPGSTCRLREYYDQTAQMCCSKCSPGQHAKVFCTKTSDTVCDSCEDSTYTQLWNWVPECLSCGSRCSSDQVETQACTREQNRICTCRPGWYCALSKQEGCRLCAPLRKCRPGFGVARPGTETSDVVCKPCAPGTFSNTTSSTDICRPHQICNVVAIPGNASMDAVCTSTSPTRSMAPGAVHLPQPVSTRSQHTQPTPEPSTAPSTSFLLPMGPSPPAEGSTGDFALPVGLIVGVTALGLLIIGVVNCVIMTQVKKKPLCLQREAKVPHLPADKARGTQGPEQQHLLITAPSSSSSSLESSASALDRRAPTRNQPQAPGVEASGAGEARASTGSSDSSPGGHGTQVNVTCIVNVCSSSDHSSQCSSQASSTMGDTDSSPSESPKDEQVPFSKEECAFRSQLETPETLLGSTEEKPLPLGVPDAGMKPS

T2: human TNFR2 on stably transfected cells (MEF-TNFR2, HeLa-TNF-R2) (human, UniProt P20333 23-461)
T2 construct: whole, on cells; Same receptor on two transfected cell lines; the cell line is named under assay; also called human TNF receptor 2
T2 sequence (looked up): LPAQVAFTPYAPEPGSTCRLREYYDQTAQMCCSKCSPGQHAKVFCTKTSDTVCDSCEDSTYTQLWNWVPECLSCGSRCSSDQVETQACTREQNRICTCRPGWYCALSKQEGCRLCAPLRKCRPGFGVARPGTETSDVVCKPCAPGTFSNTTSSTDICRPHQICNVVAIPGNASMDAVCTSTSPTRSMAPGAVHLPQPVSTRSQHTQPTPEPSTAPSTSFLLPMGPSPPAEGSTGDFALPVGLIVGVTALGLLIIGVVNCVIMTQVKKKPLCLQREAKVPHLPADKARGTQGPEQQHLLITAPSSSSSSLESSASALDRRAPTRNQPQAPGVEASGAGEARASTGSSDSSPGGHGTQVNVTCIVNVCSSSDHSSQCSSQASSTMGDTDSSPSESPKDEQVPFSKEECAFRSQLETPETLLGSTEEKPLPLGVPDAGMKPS


Legend:
TNFR2 on Kym-1 cells = target: T1, TNFR2 on Kym-1 cells; assay: cell-based or functional assay
[1] = target: T2, human TNFR2 on stably transfected cells …; assay: flow cytometry on HeLa-TNF-R2 cells after 3 days at 37 °C in 50% human blood plasma, experiment 2
Experimental: (§1) FIG. 10: Stability of scTNFR2-Fc(Δab) complexes in human blood plasma. The integrity of the scTNFR2-Fc(Δab) complexes after incubation for 0 days (control), 3 days or 8 days in 50% human blood plasma at 37° C. was tested by their ability to bind HeLa-TNF-R2 cells in flow cytometry. The percentage of intact protein (mean±S. D., n=4) was calculated from reciprocals of the EC₅₀ values which were normalized to the non-incubated control (100%). Statistical analysis was performed by two-way ANOVA and Dunnett's post-test. Results were summarized as ****p <0.0001; ***p <0.001; **p <0.01; *p <0.05; n. s.=not significant.
(§2) The stability of the scTNFR2-Fc(Δab) proteins in human blood plasma after incubation periods of 3 and 8 days at 37° C. was assayed by binding of protein samples to HeLa cells stably overexpressing TNF-R2 (HeLa-TNF-R2, Richter et al., 2012, Mol. Cell Biol. 32, 2515-2529). […] After incubation, samples were stored at −80° C. and thawed prior testing the protein integrity by binding to HeLa-TNF-R2 in flow cytometry. […] Bound protein was detected with goat anti-human IgG Fcγ fragment specific-R-phycoerythrin antibody (Jackson ImmunoResearch, 1:500) for 1 h at 4° C. After two final washing steps with FACS buffer, cells were analyzed with a MACSQuant® VYB flow cytometer equipped with a 586/15 nm filter for detection of phycoerythrin.

[2] = target: T2, human TNFR2 on stably transfected cells …; assay: flow cytometry on HeLa-TNF-R2 cells after 8 days at 37 °C in 50% human blood plasma, experiment 2
Experimental: as §1, §2

[3] = target: T2, human TNFR2 on stably transfected cells …; assay: flow cytometry on HeLa-TNF-R2 cells after 0 days at 37 °C in 50% human blood plasma (control), experiment 1
Experimental: as §1, §2

[4] = target: T2, human TNFR2 on stably transfected cells …; assay: flow cytometry on HeLa-TNF-R2 cells after 0 days at 37 °C in 50% human blood plasma (control), experiment 3
Experimental: as §1, §2

[5] = target: T2, human TNFR2 on stably transfected cells …; assay: flow cytometry on HeLa-TNF-R2 cells after 0 days at 37 °C in 50% human blood plasma (control), experiment 4
Experimental: as §1, §2

[6] = target: T2, human TNFR2 on stably transfected cells …; assay: flow cytometry on HeLa-TNF-R2 cells after 3 days at 37 °C in 50% human blood plasma, experiment 1
Experimental: as §1, §2

EC50 [1] [nM]	EC50 [2] [nM]	EC50 [3] [nM]	EC50 [4] [nM]	EC50 [5] [nM]	EC50 [6] [nM]	Binder	EC50 on Kym-1 (cell death, crystal violet), without 80M2 (TNFR2 on Kym-1 cells) [nM]
0.0685	0.0666	0.0731	0.0558	0.0855	–	scTNFR2(118)-Fc(Δab) (745) (Fc fusion, Hexavalent dimer through the Fc(Δab) region; no His tag) [about 150 residues not given here]GGGGSSSRTPSDKPVAHVVANPQAEGQLQWLNRRANALLANGVELRDNQLVVPSEGLYLIYSQVLFKGQGCPSTHVLLTHTISRIAVSYQTKVNLLSAIKSPCQRETPEGAEAKPWYEPIYLGGVFQLEKGDRLSAEINRPDYLNFRESGQVYFGIIALGGGGSSSRTPSDKPVAHVVANPQAEGQLQWLNRRANALLANGVELRDNQLVVPSEGLYLIYSQVLFKGQGCPSTHVLLTHTISRIAVSYQTKVNLLSAIKSPCQRETPEGAEAKPWYEPIYLGGVFQLEKGDRLSAEINRPDYLNFRESGQVYFGIIALGGSGGGGSGGDKTHTCPPCPAPPVAGPSVFLFPPKPKDTLMISRTPEVTCVVVDVSHEDPEVKFNWYVDGVEVHNAKTKPREEQYNSTYRVVSVLTVLHQDWLNGKEYKCKVSNKGLPSSIEKTISKAKGQPREPQVYTLPPSRDELTKNQVSLTCLVKGFYPSDIAVEWESNGQPENNYKTTPPVLDSDGSFFLYSKLTVDKSRWQQGNVFSCSVMHEALHNHYTQKSLSLSPGK	0.0149
0.0598	0.0567	0.0548	0.0629	0.0765	0.0618	scTNFR2(139)-Fc(Δab) (744) (Fc fusion, Hexavalent dimer through the Fc(Δab) region; no His tag) [about 150 residues not given here]GGGGSDKPVAHVVANPQAEGQLQWLNRRANALLANGVELRDNQLVVPSEGLYLIYSQVLFKGQGCPSTHVLLTHTISRIAVSYQTKVNLLSAIKSPCQRETPEGAEAKPWYEPIYLGGVFQLEKGDRLSAEINRPDYLNFRESGQVYFGIIALGGGGSDKPVAHVVANPQAEGQLQWLNRRANALLANGVELRDNQLVVPSEGLYLIYSQVLFKGQGCPSTHVLLTHTISRIAVSYQTKVNLLSAIKSPCQRETPEGAEAKPWYEPIYLGGVFQLEKGDRLSAEINRPDYLNFRESGQVYFGIIALGGSGGGGSGGDKTHTCPPCPAPPVAGPSVFLFPPKPKDTLMISRTPEVTCVVVDVSHEDPEVKFNWYVDGVEVHNAKTKPREEQYNSTYRVVSVLTVLHQDWLNGKEYKCKVSNKGLPSSIEKTISKAKGQPREPQVYTLPPSRDELTKNQVSLTCLVKGFYPSDIAVEWESNGQPENNYKTTPPVLDSDGSFFLYSKLTVDKSRWQQGNVFSCSVMHEALHNHYTQKSLSLSPGK	0.0595
